Assay results from the supplement of paper PMC3334620.
The full ranking holds about 33,000 sequences; the median of “E-score (-0.5 to 0.5)” is about -0.01, and the highest 2% start at about 0.26. Some of the results follow.

Target: Ste12 (UniProt P13574)
Experiment: PBM E-score (8-mer binding enrichment) (E-score (-0.5 to 0.5)); higher = stronger / more preferred TF binding; most listed sequences are background and not binding sites
Settings: protein concentration: 200 nM; construct: GST-DNA-binding domain
In short: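 Yeast transcription factors carrying a GST tag, as full-length proteins or DNA-binding domains, were produced by PURExpress in vitro transcription/translation. About 100-200 nM protein was applied to universal all-10-mer Agilent arrays, double-stranded by primer extension on fresh or once-stripped slides. Bound protein was detected with fluorescent anti-GST, and scans were normalised with masliner. The Universal PBM Analysis Suite gave each ungapped eight-base word, pooled with its reverse complement, an E-score, a modified Wilcoxon-Mann-Whitney statistic.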

Row | Sequence | PBM E-score
1 | CCCGGTTA | -0.0757
2 | AGCGGGAA | -0.168
3 | ATGATCGC | -0.0733
4 | CCCCTCTC | -0.152
5 | CTTCCTCA | 0.04
6 | AATTGATA | 0.259
7 | ATGACACA | 0.258
8 | GTTACGCA | 0.00516
9 | CCGCATCA | 0.15
10 | CAGTGGAA | -0.114
11 | AGATCCTG | -0.188
12 | CAGTACCA | -0.193
13 | GATTAGGC | -0.0927
14 | ACGATTAC | -0.0384
15 | CATGGCCA | -0.297
16 | CCAGAGCA | 0.00745
17 | CCTTAACC | 0.0143
18 | CGGATACA | 0.016
19 | AATTGACG | -0.123
20 | GGTAGCGA | -0.0902
21 | CTCGTTCC | 0.051
22 | ACAAAATG | 0.0682
23 | CTACAAGC | -0.108
24 | CATGGGCG | 0.146
25 | CTAAGGTC | 0.0181

Row | Sequence | PBM E-score
26 | GGACGAGA | -0.0489
27 | ATACGCTG | -0.123
28 | ATTCTATA | 0.0795
29 | TCCTATCA | -0.176
30 | ATGTCATG | 0.0163
31 | GCAAGCAC | -0.125
32 | TATACACA | 0.104
33 | GCCTGAGA | -0.101
34 | AAGAACTC | 0.0668
35 | CAGTTAGA | -0.00133
36 | CGAGACCA | -0.00507
37 | CGTCACAA | 0.108
38 | ATTCGTAA | 0.166
39 | GATACCGC | 0.0934
40 | ATCATGTA | 0.0854
41 | GATGTAAA | 0.0157
42 | TCGTAACA | 0.248
43 | AATCCCGT | 0.18
44 | GGCCGCAC | -0.0208
45 | GGAAAAGA | 0.05
46 | ATTACGGA | -0.0037
47 | AGGATCTA | -0.0844
48 | CCCTTAGC | -0.0617
49 | CGTTAAAC | 0.106
50 | CACTAAAA | 0.164

Row | Sequence | PBM E-score
51 | ATGGAACA | 0.00999
52 | AGGGAAAC | -0.0648
53 | TATGATCA | 0.0314
54 | AGAGGTAA | 0.0639
55 | GATCCGAA | 0.169
56 | AGAATGGG | 0.0576
57 | CCTATGGC | -0.192
58 | AAACGGTC | 0.154
59 | AACGAAGA | 0.228
60 | GGCCGAAA | 0.158
61 | CTCCTTGC | -0.18
62 | AAGATCGG | -0.0329
63 | GCGGTAAC | 0.0791
64 | AAAACGTG | 0.183
65 | ACTCAGGA | -0.00569
66 | GCCGCGCA | -0.196
67 | CACCGGCC | -0.177
68 | GGGCAGAC | -0.149
69 | CTCACTGA | 0.0605
70 | CAAAAGAG | 0.137
71 | AATCGGCA | 0.153
72 | AAAAGTTA | 0.224
73 | ACTTTCGA | -0.124
74 | GCGTACGC | -0.143
75 | GGCAGTGA | -0.129

Row | Sequence | PBM E-score
76 | ATAACAAG | 0.182
77 | AAAGGTAA | 0.0185
78 | TCTTTCCA | 0.166
79 | CCAGCCCG | -0.0428
80 | CCTACAGG | -0.321
81 | ATATTTGG | 0.204
82 | CTCCGGAA | 0.0746
83 | GACTACGC | -0.309
84 | ACTATCCG | 0.131
85 | AATTCAAC | 0.122
86 | CGATGGAC | 0.0174
87 | AGGATGTG | 0.0759
88 | ACGGGCCG | -0.11
89 | TCCAGTCA | 0.0312
90 | GATTTAGC | 0.108
91 | CGGCTGCC | 0.0411
92 | AGCGTAAT | -0.0775
93 | TAAACCAA | 0.0193
94 | ATTTACTC | 0.101
95 | TGCTTAAA | 0.15
96 | GCCCTTCA | -0.0938
97 | CATGTATC | 0.138
98 | AGGTCGGA | 0.0829
99 | GACGTCCC | -0.163
100 | AGAACATG | -0.0403

Row | Sequence | PBM E-score
101 | CCAACGGG | 0.0322
102 | CGGTATCA | 0.123
103 | ATTAGACG | 0.0127
104 | ATTGAATA | 0.144
105 | CGAACGGC | -0.0856
106 | GGCTGTGA | -0.148
107 | GAGCAACC | 0.02
108 | AGTCTTCA | 0.015
109 | AGTAGGGG | 0.107
110 | AAAGTTGT | 0.257
111 | AACGAGGC | -0.157
112 | ATTATGAG | 0.0134
113 | ATCCACAG | -0.0612
114 | AACCAAAT | 0.103
115 | CTGCGTTA | -0.0754
116 | GATTGCCA | 0.153
117 | GGAGACCC | -0.118
118 | GCATGACA | -0.131
119 | CTTCGGCC | -0.212
120 | ATAGACAT | -0.0963
121 | GTTCTAGA | -0.118
122 | CTGCTCCA | -0.216
123 | AGCTTTTG | 0.02
124 | TCGTCGAA | -0.114
125 | GCCACCAA | 0.071

Row | Sequence | PBM E-score
126 | CACACCAA | 0.115
127 | ATGTCATA | 0.153
128 | ATTGCGAG | 0.127
129 | AATCGACA | 0.248
130 | ACTCGTCG | -0.0312
131 | TATTTTCA | 0.201
132 | TCTGGGAA | 0.0759
133 | AGCTACCT | -0.00965
134 | CAATGCGG | 0.0105
135 | AAGTATAG | 0.0368
136 | CCTAGTTC | 0.0604
137 | ACTCAGGG | -0.167
138 | CGAGCGCG | 0.0806
139 | CACTAGGG | 0.0129
140 | GGACACAC | -0.112
141 | AGTACAAC | -0.145
142 | CCTTCCAG | -0.0414
143 | GGCCCGCA | -0.0268
144 | AGATGCCA | -0.0827
145 | AATGAAGA | 0.304
146 | AGGTGGCC | -0.19
147 | CACAAGGG | -0.194
148 | ACACAGGT | -0.155
149 | AGTGGGAC | -0.035
150 | ATAAGTAG | -0.0228

Row | Sequence | PBM E-score
151 | ATGCGAAA | 0.128
152 | CTTATCTA | 0.219
153 | AGAGCGTG | -0.0162
154 | CCATGACC | -0.145
155 | AGCCGCGC | 0.0595
156 | GGTCTCCA | -0.0278
157 | GAGTCTTA | -0.146
158 | AATTACGA | 0.186
159 | CCTTGACG | -0.255
160 | ATTTGCTC | 0.0976
161 | AGATTGTG | 0.0132
162 | CAGCTACC | -0.126
163 | CAATCCGG | 0.273
164 | ATTGCTCA | -0.00894
165 | AGAGAAAG | -0.114
166 | AACAGCTG | -0.0391
167 | AACTGCAC | 0.0285
168 | GCTGAAGA | -0.0185
169 | CGACGCAG | -0.237
170 | TCCCGTAA | 0.176
171 | ATTGTTTC | 0.356
172 | ATGTCAGG | 0.145
